According to US10945434B2, “Azole derivative, intermediate compound, method for producing azole derivative, agricultural or horticultural chemical agent, and protective agent for industrial material” (priority 2017, dated 2021):

Legend:
[1] = system: Fusarium graminearum; format: cell-based; conditions: 25, 3 days
[2] = system: Pyricularia oryzae; format: cell-based; conditions: 25, 7 days
[3] = system: Gaeumannomyces graminis; test: Antimicrobial activity petri dish test, Gaeumannomyces graminis; format: cell-based; conditions: 0.08 mg/L, 20, 3 days
[4] = system: Ustilago nuda; test: Antimicrobial activity petri dish test, Ustilago nuda; format: cell-based; conditions: 25, 7 days
[5] = system: Zymoseptoria tritici; test: Antimicrobial activity petri dish test, Zymoseptoria tritici; format: cell-based; conditions: 25, 14 days
[6] = system: wheat (variety: agriculture No. 61)
Protocol: (§1) The wheat growth influence by the seed treatment and the control effect on puccinia recondite were evaluated. After a compound dissolved in DMSO was smeared into wheat seed (variety: agriculture No. 61) in a plastic tube so that the throughput was 200 g ai/100 kg seeds, 20 g ai/100 kg seeds, or 2 g ai/100 kg seeds, 8-grain wheat seeds were seeded in a 80 cm^2 pot. The lower feedwater was managed in the greenhouse, a plant height of the wheat was examined 16 days after the seeding, a growth degree (%) against the wheat was examined by the following Equation, and the growth degree was calculated by the following Equation. Growth degree (%)=(plant height in agent treated area/plant height in untreated area)×100

[7] = system: puccinia recondite-causing germs; conditions: in vivo
Protocol: as §1
The spore fluid of the puccinia recondite-causing germs (adjusted to 200 spores/field of view, Gramin S of 60 ppm) was inoculated by the spraying and kept for 48 hours under high humidity conditions of 25° C. Thereafter, it was managed in a greenhouse. On 11 days after the inoculation, the morbidity of the puccinia recondite was examined, and the control value was calculated by the following Equation. The morbidity was examined on the same scale as that of Test Example 2. Control value (%)=(1−average morbidity of agent treated area/average morbidity of untreated area)×100

[8] = system: Septoria tritici; conditions: for Control value: UK field test, emulsion sprayed twice (BBCH 31-32 and 37-39, 200 L/ha), flag leaf and second leaf severity 50 days after second spraying
Protocol: The control effect test on the Septoria tritici was tested in the UK test field using the emulsion (prepared in accordance with Preparation Example 2) containing the compound (I-1) and the control compound A as the active ingredients. The amount of agent contained in each emulsion was adjusted to the amount shown in Table 15 and sprayed twice in with growth stages BBCH 31-32 and 37-39 (200 L/ha). The severity of flag leaf and second leaf was evaluated after 50 days lapsed after the second spraying. The control value was calculated from the average severity of the flag leaf and the second leaf. Control value (%)=(1−average severity of treated area/average severity of untreated area)×100

[9] = system: Rhizoctonia solani; test: Antimicrobial activity petri dish test, Rhizoctonia solani; format: cell-based; conditions: tested substance 5 mg/L; PDA medium; 25, 1 day
[10] = system: Sclerotinia sclerotiorum; test: Antimicrobial activity petri dish test, Sclerotinia sclerotiorum; format: cell-based; conditions: tested substance 5 mg/L; PDA medium
[11] = system: Microdochium nivale; test: Antimicrobial activity petri dish test, Microdochium nivale; format: cell-based; conditions: tested substance 5 mg/L; PDA medium; 25, 3 days
[12] = system: Gibberella fujikuroi; test: Antimicrobial activity petri dish test, Gibberella fujikuroi; format: cell-based; conditions: tested substance 5 mg/L; PDA medium; 25, 3 days
[13] = tested substance 5 mg/L, PDA medium

With `CC(O)(Cn1cncn1)c1ccc(Oc2ccc(Cl)cc2)cc1C(F)(F)F` (stereo not drawn) the antimicrobial index ([1]; 1.25 mg/L, mycelium elongation inhibition rate on PDA medium) was 4 (Less than 80% and 60% or more), the antimicrobial index ([2]; 0.63 mg/L, PDA medium) was 3 (Less than 60% and 40% or more) and the antimicrobial index [3] was 3 (key: 5: 80% or more; 4: Less than 80% and 60% or more; 3: Less than 60% and 40% or more; Less than 40% and 20% or more; 1: Less than 20%). For the same compound, the antimicrobial index ([4]; 1.25 mg/L) was 3 (key: 5: 80% or more; 4: Less than 80% and 60% or more; 3: Less than 60% and 40% or more; Less than 40% and 20% or more; 1: Less than 20%) and the antimicrobial index [5] was 4 (key: 5: 80% or more; 4: Less than 80% and 60% or more; 3: Less than 60% and 40% or more; Less than 40% and 20% or more; 1: Less than 20%).
`COC(=O)C(O)(Cn1cncn1)c1ccc(Oc2ccc(Cl)cc2)cc1Cl` (stereo not drawn) [Compound I-1, methyl 2-hydroxy-2-(2-chloro-4-(4-chlorophenoxy)phenyl)-3-(1H-1,2,4-triazol-1-yl)propanoate] was tested, and the “Growth degree (%)” value ([6]; seed treatment, throughput 20 g ai/100 kg seeds, wheat plant height 16 days after the seeding) was 100%, the “growth influence on wheat / phytotoxicity” value ([6]; wheat seed treatment) was “phytotoxicity was weak” and the “effect of controlling disease by the seed treatment” value [7] was “superior in effect of controlling disease than the control compound A”. For the same compound, the Control value ([8]; dosage 90) was 92%, the Control value ([8]; dosage 150) was 93% and the “control value for the Septoria tritici” value ([8]; emulsion, UK test field, sprayed twice, compared with emulsion of control compound A) was “higher control value”.
For `CC(O)(Cn1cncn1)c1ccc(Oc2ccc(Cl)cc2)cc1C(F)(F)F` (stereo not drawn) [control compound A], the “Growth degree (%)” value ([6]; agriculture No. 61, wheat, in vivo) was 90%.
In the case of `COC(=O)C(O)(Cn1cncn1)c1ccc(Oc2ccccc2)cc1` (stereo not drawn) [control compound B, methyl 2-hydroxy-2-(4-phenoxyphenyl)-3-(1H-1,2,4-triazol-1-yl)propanoate], the antimicrobial index [1] is reported as 3 (key: 5: 80% or more; 4: Less than 80% and 60% or more; 3: Less than 60% and 40% or more; Less than 40% and 20% or more; 1: Less than 20%), the antimicrobial index [2] is reported as 2 (key: 5: 80% or more; 4: Less than 80% and 60% or more; 3: Less than 60% and 40% or more; Less than 40% and 20% or more; 1: Less than 20%) and the antimicrobial index ([3]; PDA medium) is reported as 1 (Less than 20%). The antimicrobial index [4, 13] was 1 (Less than 20%), the antimicrobial index [9] was 2 (Less than 40% and 20% or more) and the antimicrobial index [10] was 2 (Less than 40% and 20% or more). For the same compound, the antimicrobial index [11] was 1 (Less than 20%), the antimicrobial index [12] was 2 (Less than 40% and 20% or more) and the antimicrobial index [5, 13] was 1 (Less than 20%).

Read-outs that look alike come from different tables or passages of the source.
